# Among all 46,000 compounds or so, about 60 (0.1%) were called active. Not shown: some 3% with an inconclusive outcome. The call rests on the fitted dose curve; in most records, active means well fitted inhibition curve with a large enough effect; inconclusive means small, poorly fitted or top-dose-only effect; inactive means no such curve, though single readings can be large or run the other way. The list shows a part of the results.
# Test: Primary qHTS assay for Inhibitors of ovarian cancer metastasis using an organotypic tumor microenvironment (TME) model. Further: nearly all actives have a fitted effect of over 65% in size.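 On activity change, negative = inhibition: plate controls were DMSO wells for no effect and tomatine positive control wells for full effect.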
# Conditions: SKOV3ip1-GFP adhesion/invasion on 3D omental model, fluorescence; series mostly up to 45.8 µM; activity change, negative = inhibition: at the top concentration
# Outline: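 Primary human omental fibroblast/mesothelial 3D culture pre-formed 48 h. SKOV3ip1-GFP cells added with compounds (0.36-46 umol/L), incubated 2 h RT/16 h 37 C, fixed; GFP cells quantified at 488/509 nm.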
Structure (SMILES),outcome,"activity change, negative = inhibition"
COc1ccc(CCNC(=O)c2cnc3sc(N4CCCCCC4)nn3c2=O)cc1OC,inactive,
CCOCCCNC(=O)C(c1ccc(OC)cc1)N(Cc1cccs1)C(=O)c1ccccc1O (stereo not drawn),,inactive: 1.06%
CC1=C(C(=O)Nc2c(C)cc(C)cc2C)C2(CCN(C(C)C)CC2)OC1=O,inactive,
CC1=C(C(=O)Nc2cccc(C)c2C)C2(CCCCC2)OC1=O,,inactive: 12.5%
COc1ccc(-c2cc3c(=O)n(CC(=O)Nc4ccccc4C(F)(F)F)ccn3n2)cc1OC,,inactive: -8.6%
Cc1ccc(N2CC(NC(=O)Cc3cccs3)CC2=O)cc1 (stereo not drawn),inactive,
CCOc1cccc2sc(N(Cc3cccnc3)C(=O)c3ccco3)nc12,,inactive: 8.33%
COc1cc(OC)c(NC(=O)Nc2nnc(N(C)C3CCCCC3)s2)cc1Cl,,inactive: -8.27%
COc1ccc(C(c2c(C)n(C)n(-c3ccccc3)c2=O)c2c(C)n(C)n(-c3ccccc3)c2=O)cc1O,,inactive: 20.2%
CC1(C(=O)Nc2cccc(C(F)(F)F)c2)Cc2ccccc2C(=O)O1 (stereo not drawn),,inactive: 9.54%
Cc1c(C(=O)Nc2ccc(Br)cc2F)oc2ccc(S(=O)(=O)N3CCCCC3)cc12,,inactive: 1.66%
CC(=O)c1ccc(NC(=O)CN(C)S(=O)(=O)c2cc3c(cc2C)NC(=O)CO3)cc1,,inactive: -0.721%
CC1CCN(CC(=O)N2CCCc3c2c(=O)oc2ccc(OCc4ccccc4)cc32)CC1,,inactive: 6.58%
CCCNC(=O)CN1C(=O)COc2ccc(S(=O)(=O)N3CCCC3)cc21,inactive,
CCN1CCC(N(Cc2ccc(F)cc2)C(=O)Nc2cc(C)ccc2C)CC1,,inactive: -14%
CCOc1ccccc1CNc1ncnc2onc(-c3ccc(F)cc3)c12,,inactive: 3.45%
O=C(CN1C(=O)C2CCCCN2c2ccc(C(=O)N3CCCC3)cc21)NCc1ccc(F)cc1 (stereo not drawn),,inactive: 8.07%
Cc1nc(N2CCOCC2)c2c(C(=O)N3CCN(c4cc(Cl)ccc4C)CC3)c(C)oc2n1,,inactive: -1.12%
CCOc1c(CC2C(=O)Nc3ccc(Br)cc32)cccc1OC (stereo not drawn),,inactive: -24.1%
COc1ccc(CNC(=O)C2CCCCN2S(=O)(=O)c2ccc(F)cc2)cc1 (stereo not drawn),inactive,
CCOc1ccc(N2C(=O)c3[nH]nc(-c4ccccc4)c3C2c2ccc(O)c(OC)c2)cc1 (stereo not drawn),inactive,
O=C(Nc1ccc(S(=O)(=O)Nc2ncccn2)cc1)c1cccc(Cl)c1,inactive,
COC(=O)c1ccc(C2CC(=O)Nc3c2c(C)nn3-c2nc(C)cc(C)n2)cc1 (stereo not drawn),,inactive: 0.622%
CC1CCCCN1C(=O)CSc1nc2ccccc2nc1Cc1ccccc1 (stereo not drawn),,inactive: -24.1%

Structure (SMILES),outcome,"activity change, negative = inhibition"
COc1ccc(-n2cc(C(=O)NCCc3ccc(C)cc3)c3ccccc3c2=O)cc1,,inactive: 0.866%
CCOC(=O)c1c(S(=O)(=O)N2CCC(C(=O)Nc3ccc(C)cn3)CC2)c(C)n(C)c1C,,inactive: 7.04%
COc1cc(NC(=O)Cn2c(=O)n(Cc3ccccc3)c(=O)c3oc4ccccc4c32)cc(OC)c1,,inactive: 4.08%
COc1ccc(CNC(=O)c2ccc3c(c2)N=C(C)c2c(C)ccc(C)c2S3)cc1,,inactive: -1.31%
CCN(CC)c1ccc(NC(=O)CN2CCN(S(=O)(=O)c3ccc(C(C)C)cc3)CC2)cc1,,inactive: 4.71%
O=C(Cn1ccc2cc(S(=O)(=O)N3CCCC3)ccc21)NCc1ccc(Cl)cc1,,inactive: 1.72%
Cc1cc(C)cc(NC(=O)CC(C)n2nc(C)cc2C)c1 (stereo not drawn),,inactive: -29.4%
CCn1c(SC)nc2c([nH]c3ccccc32)c1=O,inactive,
O=C(Nc1ccc(F)cc1)C1CCN(c2nc3ccccc3nc2C(F)(F)F)CC1,inactive,
COc1ccc(-c2noc(CC(=O)N(C)c3ccccc3F)n2)cc1,inactive,
Cc1cc(-c2ccc(S(=O)(=O)Nc3ccccc3C)cc2)on1,inactive,
COc1ccc(NC(=O)C2=C(C)Nc3nc(SCc4ccc(C)cc4C)nn3C2c2cccc(OC)c2OC)cc1 (stereo not drawn),inactive,
Cc1oc2ncnc(N3CCCCC3)c2c1C(=O)NCC1CCN(Cc2ccccc2F)CC1,inactive,
Cc1ccc(CNC(=O)c2oc3ccc(S(=O)(=O)N4CCCC(C)C4)cc3c2C)cc1 (stereo not drawn),,inactive: -1.62%
O=c1[nH]c(=O)n([C@H]2C[C@@H](O)[C@@H](CO)O2)cc1F,,inactive: 0.352%
COc1ccccc1NC(=O)c1sc2nc(-c3cc4cc(Cl)ccc4oc3=O)[nH]c(=O)c2c1C,inactive,
COc1cc(-c2ccno2)ccc1S(=O)(=O)N1CCN(c2cccc(Cl)c2)CC1,inactive,
CCOc1ccc(CNC(=O)Cn2nc(C)c3nn(-c4ccc(Cl)cc4)c(C)c3c2=O)cc1,,inactive: -13.7%
CNC(=O)c1ccc(Nc2cc(Nc3ccccc3S(=O)(=O)C(C)C)c3cc[nH]c3n2)nc1,,inactive: -1.56%
Cc1[nH]c(=O)[nH]c(=O)c1S(=O)(=O)Nc1cccc(Cl)c1C,inactive,
COc1ccc(CCNS(=O)(=O)c2ccc3c(c2)c(=O)n(C)c(=O)n3C)cc1OC,,inactive: -1.45%
CCc1ccc(NC(=O)CC2C(=O)N(c3cccc(C)c3)C(=O)N2Cc2cccc(OC)c2)cc1 (stereo not drawn),,inactive: -6.97%
Cc1cc(Cl)ccc1OCCCC(=O)NO,,inactive: 6.35%
COc1ccc(OC)c(NC(=O)Cn2nc3c(cc2=O)CCCC3)c1,inactive,

# Source: PubChem BioAssay AID1963576 (National Center for Advancing Translational Sciences (NCATS), 2024)
